Source: PubChem BioAssay AID1030 (National Center for Advancing Translational Sciences (NCATS), 2008)
The campaign covered roughly 220,000 compounds. About 16,000 (7.3%) were called active. The shares of active, inactive and inconclusive entries below differ from those in the screen. Calls come from the whole dose curve; as a rule, active = well fitted inhibition curve with a large enough effect (not every such curve was filed as active); inconclusive = small, poorly fitted or top-dose-only effect, or another doubt; inactive = no such curve, though single readings can be large or run the other way. Potencies of inconclusive entries are left out as doubtful fits.

molecular target: Aldehyde dehydrogenase 1A1 (Homo sapiens) (UniProt P00352); assay: qHTS Assay for Inhibitors of Aldehyde Dehydrogenase 1 (ALDH1A1); conditions: Purified ALDH1A1, NADH fluorescence, propionaldehyde substrate; series mostly up to 75.3 µM
Sequence of UniProt P00352 (P00352 whole entry, looked up): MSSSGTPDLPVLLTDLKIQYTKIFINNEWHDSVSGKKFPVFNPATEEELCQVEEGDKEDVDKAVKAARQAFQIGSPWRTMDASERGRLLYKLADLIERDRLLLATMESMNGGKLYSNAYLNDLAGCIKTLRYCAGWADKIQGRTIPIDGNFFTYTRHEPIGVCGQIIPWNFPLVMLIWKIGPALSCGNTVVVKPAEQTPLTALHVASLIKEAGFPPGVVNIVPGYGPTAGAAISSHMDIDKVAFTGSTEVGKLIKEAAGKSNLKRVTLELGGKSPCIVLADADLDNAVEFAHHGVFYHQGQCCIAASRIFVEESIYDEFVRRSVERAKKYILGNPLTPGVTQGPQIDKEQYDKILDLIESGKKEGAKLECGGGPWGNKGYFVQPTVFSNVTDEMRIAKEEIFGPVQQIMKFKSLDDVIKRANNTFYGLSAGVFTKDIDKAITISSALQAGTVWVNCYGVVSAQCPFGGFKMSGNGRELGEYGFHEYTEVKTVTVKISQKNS
Potency is the fitted concentration of half-maximal effect; tags give direction and shape of the fitted curve.

SMILES | Potency
CCN(CC)c1ccc(/C=N/NC(=O)OC)c(O)c1 | inconclusive [inhibitor, single point]
Cc1nn(-c2ccccc2)c(C)c1/C=N\NS(=O)(=O)c1ccc(Cl)cc1 | inconclusive [inhibitor, single point]
COc1ccc(OC(C)C(=O)N2CCN(c3ccccn3)CC2)cc1 (stereo not given) | inconclusive [inhibitor, single point]
O=c1c2ccccc2c(/C=N/c2ncn[nH]2)c(O)n1Cc1ccccc1 | inconclusive [inhibitor, partial curve]
c1ccc2oc(-c3csc(NCC4CCCO4)n3)cc2c1 (stereo not given) | inconclusive [inhibitor, single point]
COc1cc(Cl)c(C)cc1NC(=O)CSc1nc2ccccc2o1 | inconclusive [inhibitor, single point]
CCOC(=O)NN1C(=O)c2ccccc2NC1c1ccc(OC)c(OC)c1 (stereo not given) | inconclusive [inhibitor, partial curve]
O=C1c2ccccc2S(=O)(=O)N1CC(O)COc1ccc(Br)cc1 (stereo not given) | inconclusive [inhibitor, single point]
CCOC(=O)CNc1nc(Cl)c(C#N)s1 | inconclusive [inhibitor, partial curve, poor fit]
CC(=O)c1ccc(N=C2SCCCN2C(=O)C2CCCC2)cc1 | inactive
Cn1c(=O)cc(OCC(=O)N2CCCc3ccccc32)c2ccccc21 | inconclusive [inhibitor, partial curve, poor fit]
COCCN(C)Cc1cn(-c2ccc(F)cc2F)nc1-c1ccccc1C | active: 25.1 µM
CC1(C)C(=O)Nc2ccccc2N1C(=O)Cn1ncc(Cl)c(Cl)c1=O | active: 1.12 µM
c1ccc(CCc2nn3c(Cn4nnc5ccccc54)nnc3s2)cc1 | active: 3.55 µM
CN(C)c1ccc(/C=N/NC(=O)c2ccccc2)cc1 | inconclusive [inhibitor, single point]
COc1cc(NC2c3ccccc3C(=O)N2Cc2ccc3c(c2)OCO3)cc(OC)c1OC (stereo not given) | inactive
CCn1c(SCC(=O)c2cc(OC)ccc2OC)nnc1C1CC1 | inconclusive [inhibitor, single point]
FC(F)(F)c1cnc(NNC(=S)Nc2cccnc2)c(Cl)c1 | active: 2.24 µM
CC(C)OC(=O)c1ccc(N)cc1 | inactive
c1ccc(N2CC3CCc4ccccc4C3=N2)cc1 (stereo not given) | inconclusive [inhibitor, partial curve]
CCOc1ccc(-c2nnc(-c3ccccc3)n2-c2ccccc2)cc1 | inactive
CC1(C)Cc2c(C#N)c(N3CCN(C(=O)c4ccco4)CC3)nc(Cc3ccccc3)c2CO1 | inconclusive [inhibitor, partial curve]
Cc1cccc2sc(N(CCCN(C)C)C(=O)c3sc4ccccc4c3Cl)nc12 | inconclusive [inhibitor, single point]

SMILES | Potency
CN(C)c1ccc(N=Cc2nc(-c3ccccc3)oc2OC(=O)c2cccc(Br)c2)cc1 | inconclusive [inhibitor, single point]
Cc1cccc(OCC(=O)Nc2cc(S(=O)(=O)N3CCCCC3)ccc2N2CCN(C)CC2)c1 | active: 11.2 µM
C/C(N)=C(/C#N)C(=O)COC(=O)c1cccc2ccccc12 | inconclusive [inhibitor, single point]
N#C/C(=N\O)c1nc(-c2ccccc2)cs1 | inactive
Cc1nc2ccc(NC(=O)N3CCOCC3)cc2nc1C | inconclusive [inhibitor, partial curve]
CCOC(=O)Cc1csc(NC(=S)NC(=O)c2ccc([N+](=O)[O-])cc2)n1 | inconclusive [inhibitor, single point]
CCOc1ccc(CCNC(=O)C2CCCN(c3nn4c(=O)cc(C)nc4s3)C2)cc1OCC (stereo not given) | inconclusive [inhibitor, single point]
C/C(=N\N=c1/sc2ccccc2n1C)c1ccc(N2CCOCC2)cc1 | inactive
CC(C(=O)Nc1ncc2c(n1)CC(C)(C)CC2=O)N1C(=O)c2ccccc2C1=O (stereo not given) | inconclusive [inhibitor, partial curve]
Cc1cc2cc(C)c(NCCNC(=O)c3ccccc3)nc2cc1C | inconclusive [inhibitor, single point]
COc1ccccc1Nc1nc2nonc2[nH]c1=O | inconclusive [inhibitor, single point]
CC(=C\c1ccco1)/C=C(\C#N)C(=O)NCCc1c[nH]c2ccccc12 | inconclusive [inhibitor, single point]
O=C(COC(=O)C1CSC2(c3ccc(F)cc3)CCC(=O)N12)NC(=O)NC1CCCC1 (stereo not given) | inconclusive [inhibitor, partial curve]
O=C(COC(=O)CCCN1C(=O)c2ccccc2C1=O)Nc1ncc(Cl)cc1Cl | inactive
Cc1cc(/C=C2\SC(=Nc3ccccc3)NC2=O)c(C)n1-c1ccc(S(N)(=O)=O)cc1 | active: 28.2 µM
O=C(NC(Cc1ccccc1)C(=O)Oc1ccc2c(C(F)(F)F)cc(=O)oc2c1)OCc1ccccc1 (stereo not given) | inconclusive [inhibitor, single point]
O=C(c1ccccc1)N1CCC(c2nc3c(nnn3Cc3ccccc3Cl)c(=O)[nH]2)CC1 | inconclusive [inhibitor, partial curve]
O=C1CCCC(=O)N1c1ccc(Oc2ccc(Cl)cc2)cc1 | inconclusive [inhibitor, single point]
CS(=O)(=O)N1CCC(Oc2ccccc2C(=O)NC(C2CC2)C2CC2)CC1 | inconclusive [inhibitor, single point]
O=S(=O)(c1cccc2c(I)cccc12)N1CCCNCC1 | inactive
CCOC(=O)CN(C)Cc1c[nH]c2ccccc12 | active: 22.4 µM
COCCn1c(=O)c2cc3c(=O)n(CCOC)c(=O)c3cc2c1=O | active: 17.8 µM
